Results taken from publication PMC4336329 (PLoS ONE, 2015).
Hit rate of the full screen: of about 310,000 compounds, about 2,200 (0.71%) showed an effect of 50% or more. Effects have a minus sign here. The list shows a part of the results.

Target: human ether-à-go-go-related gene (hERG) potassium channel (human, UniProt Q12809)
Experiment: primary screen, population patch clamp on CHO cells stably expressing hERG

human ether-à-go-go-related gene (hERG) potassium channel, sequence (Q12809 whole entry, looked up): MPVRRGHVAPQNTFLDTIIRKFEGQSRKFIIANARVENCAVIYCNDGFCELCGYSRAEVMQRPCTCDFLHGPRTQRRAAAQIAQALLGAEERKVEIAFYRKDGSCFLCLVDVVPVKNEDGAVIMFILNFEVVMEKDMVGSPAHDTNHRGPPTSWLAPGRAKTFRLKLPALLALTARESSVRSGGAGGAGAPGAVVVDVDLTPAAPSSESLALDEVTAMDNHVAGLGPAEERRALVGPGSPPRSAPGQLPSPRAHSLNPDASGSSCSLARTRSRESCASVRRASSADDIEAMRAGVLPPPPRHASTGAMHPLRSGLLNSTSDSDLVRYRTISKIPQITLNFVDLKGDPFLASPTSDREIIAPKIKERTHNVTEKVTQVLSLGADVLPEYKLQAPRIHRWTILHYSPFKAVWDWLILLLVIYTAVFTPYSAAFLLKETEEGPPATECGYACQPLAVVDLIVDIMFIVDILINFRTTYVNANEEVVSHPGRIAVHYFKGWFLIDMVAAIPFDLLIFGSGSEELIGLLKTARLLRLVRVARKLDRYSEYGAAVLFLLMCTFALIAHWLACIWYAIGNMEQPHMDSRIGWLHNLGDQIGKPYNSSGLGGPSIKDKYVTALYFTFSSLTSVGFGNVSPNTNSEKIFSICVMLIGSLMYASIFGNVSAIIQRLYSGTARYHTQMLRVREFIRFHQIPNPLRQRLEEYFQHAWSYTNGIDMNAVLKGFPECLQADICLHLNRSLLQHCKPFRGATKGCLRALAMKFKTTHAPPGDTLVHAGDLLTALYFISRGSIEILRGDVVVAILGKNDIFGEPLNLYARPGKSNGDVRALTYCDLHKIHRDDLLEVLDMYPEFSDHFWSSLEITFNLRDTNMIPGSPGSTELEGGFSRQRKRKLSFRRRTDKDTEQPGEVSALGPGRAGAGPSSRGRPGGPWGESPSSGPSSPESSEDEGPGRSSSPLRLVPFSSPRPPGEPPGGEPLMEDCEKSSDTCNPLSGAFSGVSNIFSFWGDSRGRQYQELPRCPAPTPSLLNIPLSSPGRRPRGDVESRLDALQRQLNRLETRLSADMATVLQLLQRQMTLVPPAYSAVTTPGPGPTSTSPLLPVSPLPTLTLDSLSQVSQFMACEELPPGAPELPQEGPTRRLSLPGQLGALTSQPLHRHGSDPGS

Row | SMILES | hERG current change (%, negative = inhibition) at 1uM [%]
1 | O=c1[nH]c2cc3c(cc2cc1CN(CC1CCCO1)S(=O)(=O)c1ccc(Cl)cc1)OCCO3 (stereo not shown) | 0.469
2 | CCOC(=O)C1(CCOC)CCN(Cc2cnc(-c3cccc(C)c3)nc2)CC1 | 7.05
3 | CC(=O)Nc1ccc(C(=O)/C=C/c2ccco2)cc1 | 7.83
4 | COc1cccc(C(=O)NCC(=O)OCC(=O)Nc2ncc(Cl)cc2Cl)c1 | 5.04
5 | Cc1cccc(NC(=O)Nc2ccc(Oc3c(F)c(F)c(F)c(F)c3F)cc2)c1 | 4.95
6 | CC12CN3CC(C)(CN(C1)C3c1cc(Br)ccc1O)C2=O (stereo not shown) | 9.25
7 | COc1ccc(CCNC(=O)CSc2nc3ncccc3[nH]2)c(OC)c1 | 9.49
8 | Cc1nc2ccccn2c1C(=O)NC1CCCCC1 | 9.19
9 | O=C(c1cnc2ccccn2c1=O)N1CCc2ccccc21 | -0.387
10 | COCCCNC(=O)C1CCN(C(=O)Nc2ccc(Cl)cc2)CC1 | 11.2
11 | O=C(OCc1nc2ccc(Cl)cc2n1CCO)c1ccccc1C(=O)c1ccccc1 | 7.18
12 | Cc1ccc(N(C)C(=O)n2cnc3ccccc32)cc1 | 7.51
13 | CC(C)CNC(=O)c1cccc2c1-c1ccccc1C2=O | 14
14 | CCCCc1ccc(S(=O)(=O)NNC(=S)NCc2ccco2)cc1 | 2.2
15 | CC(C)C(OC(=O)CN1C(=O)COc2ccccc21)C(=O)NC1CCCCC1 (stereo not shown) | 4.41
16 | Cc1cccc(C)c1NC(=S)Nc1ccc(Cl)c(Cl)c1 | 10.6
17 | O=S(=O)(NCc1ccccn1)c1ccc(Br)s1 | 12.1
18 | COc1ccc(-c2c(NC(=O)c3ccco3)oc3c(C)cccc3c2=O)cc1OC | 15.6
19 | COC(=O)c1cc(S(=O)(=O)NCC2CCN(Cc3cccc(F)c3)CC2)c[nH]1 | 2.87
20 | Cc1ccc(-c2ccnc3c(Br)c(C)nn23)cc1 | 15
21 | COc1ccc(S(=O)(=O)N(C)c2nc3ccccc3n3c(CC(C)C)nnc23)cc1 | -10.2
22 | N#Cc1ccc[n+](CC(=O)c2ccc(Cl)cc2)c1.[Br-] | 13.2

Row | SMILES | hERG current change (%, negative = inhibition) at 1uM [%]
23 | [N-]=[N+]=N[C@@H]1C[C@H](n2ccc(=O)[nH]c2=O)O[C@@H]1CO | 8.18
24 | Cc1noc(C)c1CSCC(=O)Nc1nc(-c2ccc(F)c(F)c2)cs1 | -3.35
25 | CCOCCCNC(=O)C(c1ccc(OC)cc1)N(Cc1ccc2c(c1)OCO2)C(=O)c1ccccc1O (stereo not shown) | 9.72
26 | COc1cc(/C=C/C(=O)OCC(=O)NCc2ccco2)ccc1OCC#N | 10.2
27 | COc1cc2c(cc1OC)CN(C(=O)CNC(=O)c1ccc(OC(F)F)cc1)CC2 | -22.5
28 | CC1=C(c2ccccc2)CCC1=O | 4.36
29 | O=C(Nc1ccc2c(c1)OCO2)N1CCCC1 | 21.5
30 | CCc1ccc(NC(=O)CSc2nc3ncc(Br)cc3[nH]2)cc1 | 18.3
31 | CCn1cc(C(=O)NCCC(=O)NCCO)c(=O)c2cc3c(cc21)OCO3 | 17.4
32 | O=C(Cc1ccc(Cl)cc1)Nc1cccnc1 | 11.1
33 | O=C(Nc1ccc2c(c1)nc1n2CCSC1)c1ccco1 | 9.88
34 | COc1ccccc1NC(=O)c1ccc(NC(=O)COC(=O)C2CCCCC2)cc1 | 17.7
35 | CCOc1ccc(NC(=O)C2CCN(S(=O)(=O)c3ccc4c(c3)N(C(C)=O)CCO4)CC2)cc1 | 13.8
36 | CCOc1ccc(N(CC(=O)NC2CCCC2)C(=O)CCC(=O)Nc2nc(C)cs2)cc1 | 5.15
37 | CN(C)S(=O)(=O)c1ccc(N2CCOCC2)c(C(=O)NCc2ccc3c(c2)OCO3)c1 | 5.83
38 | CCOC(=O)N1CCN(C(=O)CSc2nnc(C3COc4ccccc4O3)o2)CC1 (stereo not shown) | 2.78
39 | Clc1ccc(SCCCCN2CCOCC2)cc1.O=C(O)C(=O)O | 5
40 | COC(=O)c1[nH]c2cccc(OC)c2c1NC(=O)CCN1CCN(c2ccccc2OC)CC1 | -7.96
41 | Cc1ccc2cc(COC(=O)c3cccc([N+](=O)[O-])c3)c(=O)[nH]c2c1 | 12.6
42 | COc1ccccc1NC(=O)CSc1nc2ccccc2cc1Cc1ccccc1 | 14.5
43 | O=C(Oc1ccc(C(=S)N2CCOCC2)cc1)c1ccc(Br)cc1 | 17.5
44 | CN(Cc1cccc(-n2cccn2)c1)C(=O)CCc1nnc(C2CCCCC2)o1 | 1.1

Row | SMILES | hERG current change (%, negative = inhibition) at 1uM [%]
45 | CCCCc1cc(=O)oc2c(CN(CC)CC)c(O)c(Cl)cc12 | -10.1
46 | O=C(COC(=O)c1ccccn1)Nc1cccc(Cl)c1Cl | 13.7
47 | CC(=O)N1CCN(S(=O)(=O)c2cccc(C(=O)NC3CCC(C)CC3)c2)CC1 (stereo not shown) | 13.1
48 | N#CC(c1ccc(F)cc1)c1ccc(C(=O)c2ccccc2)cc1 (stereo not shown) | 7.99
49 | Cc1ccc(S(=O)(=O)ON2C(=O)c3cccc4cccc(c34)C2=O)cc1 | 5.41
50 | CCCC[n+]1cc(/N=C(\[O-])OC)on1 | 12.5
51 | COc1ccc(C(C(=O)NCC2CCCO2)N(C(=O)Cn2nnc3ccccc32)c2ccc(NC(C)=O)cc2)c(OC)c1 (stereo not shown) | 12.6
52 | CC(C)(C)OC(=O)NNC(=S)NCc1ccc(Cl)cc1 | 10.5
53 | CC(C)c1ccc(N2CC(C(=O)Nc3nccs3)CC2=O)cc1 (stereo not shown) | -3.96
54 | CC(=O)C(C)n1cnc2scc(-c3ccc(C)cc3)c2c1=O (stereo not shown) | 13.1
55 | O=C(Cc1ccc([N+](=O)[O-])cc1)Nc1ccc(O)cc1C(=O)O | 6.82
56 | O=C(COC(=O)Cc1ccccc1)Nc1ccc(F)cc1 | 18.4
57 | CCC(C)(C)NC(=O)CN(C(=O)CCC(=O)Nc1nccs1)c1ccccc1C | 13.5
58 | Cn1c(=O)c(=O)n(C)c2cc(N3CCCC3)c(NS(=O)(=O)c3ccc(F)cc3)cc21 | -7.01
59 | CC(C)CCn1c(NCCN(C)C)nc2c1c(=O)[nH]c(=O)n2C | -12.7
60 | C/C(=N/O)c1ccccn1 | 2.69
61 | O=C(Nc1ccccc1C(=O)O)c1cncc(Br)c1 | 16.9
62 | COCCNC(=O)Cn1cc(C(=S)N2CCCCC2)c2ccccc21 | 10.9
63 | O=C(c1oc2ccccc2c1CSCc1ccccc1)N1CCN(c2ncccn2)CC1 | 11.8
64 | CCN(Cc1ccncc1)C(=O)c1ccc(C)o1 | 9.86
65 | Cc1cc(Nc2ccc(N(C)C)cc2)n2ncnc2n1 | 15.9
66 | O=C(NCC1CCCO1)c1ccc(S(=O)(=O)N2CCC(c3nc4ccc(Cl)cc4[nH]3)CC2)cc1 (stereo not shown) | 5.3

Row | SMILES | hERG current change (%, negative = inhibition) at 1uM [%]
67 | CCOC(=O)C1=C(C)NC(=O)NC1c1ccc([N+](=O)[O-])o1 (stereo not shown) | 9.81
68 | O=C(c1ccc2c(c1)CCN2S(=O)(=O)c1ccccc1)N1CCN(c2ccccc2F)CC1 | 17
69 | Cc1nn(-c2ccccc2)c(C)c1C(=O)N1CCN(S(=O)(=O)c2ccccc2)CC1 | -7.48
70 | O=C(CN1C(=O)S/C(=C/c2ccncc2)C1=O)Nc1ccccc1 | -0.344
71 | O=C1N(S(=O)(=O)c2ccccc2F)C(=O)C2(CCCC2)N1S(=O)(=O)c1ccccc1F | 4.97
72 | COc1cc(-c2nc3ccc(N4CCN(C)CC4)cc3[nH]2)cc(OC)c1OC | 21.3
73 | CC1CCN(C(=O)COC(=O)c2n[nH]c(=O)c3ccccc23)CC1 | 6.07
74 | Cc1cc(C)cc(NC(=O)CN2CCc3ccccc3C2)c1 | 3.26
75 | CC1CCc2nn(CC(=O)NCCCN3CCCC3=O)cc2C1 (stereo not shown) | 9.88
76 | CCOC(=O)Cc1csc(NC(=O)c2ccc(C)c(S(=O)(=O)N3CCOCC3)c2)n1 | -2.74
77 | CC(C)CN(C(=O)/C=C/c1nc2ccccc2s1)C1CCS(=O)(=O)C1 (stereo not shown) | 4.92
78 | FC(F)Oc1cccc(NC(=S)N2CCN(c3ccccn3)CC2)c1 | 4.81
79 | COc1ccc(/C=C/c2noc(-c3ccccc3OC(C)=O)n2)cc1 | 9.08
80 | CCCCNC(=O)N1CCC(CCC(=O)N(C)Cc2ccccc2)CC1 | 7.83
81 | COc1ccc([C@H]2CC(=O)C=C(c3cc(OC)ccc3OC)C2)cc1 | 8.44
82 | Cc1ccc(-c2nc(C=Nc3ccccc3)c(O)o2)cc1 | 11.5
83 | COc1cc(Cl)ccc1OCc1cc(C(=O)N(C)CCc2c(C)n[nH]c2C)no1 | 14.3
84 | Cc1cc(C)c(C#N)c(Nc2ccc3c(c2)OCCO3)n1 | 4.9
85 | COc1ccc(CCNCc2ccc(C)s2)cc1OC.Cl | 4.6
86 | Cc1ccc(N(CC(=O)Nc2ccccc2C(=O)NCc2ccco2)S(=O)(=O)c2ccccc2)cc1C | 13.7
87 | CCN(CC(=O)Nc1cc(Cl)ccc1C)C(=O)CN1C(=O)NC(CC)(c2ccccc2)C1=O (stereo not shown) | 12.4
88 | O=C1NC(CCc2ccccc2)C(=O)N1CCOc1cccc(Br)c1 (stereo not shown) | 7.3
